Laboratory results from the supplement of paper PMC12632987.
The full ranking holds about 1,800 sequences; the median of “median log2 fold change of GCK-ALFA target abundance (FLAG IP / Myc IP barcode read proportion)” is about 0.14, and the lowest 2% start at about -0.84. Some of the results follow.

B1: traf2_out_17_162_1590 (protein)
chain: SELEKELEEIEKELEELEKKLKELKEKLKNIDKLSKEELTDLLVEASEARRRALELLERIESLKDKLPEEKYEELSERAERLAEEFQRIANKFYKKLEEK
B2: traf2_out_20_3_2136 (protein)
chain: SELEEELKKELEKAKKLLEKAAALADKETAAKLKALIKRLEASEELSPEDRLVEFSEIRREVLELALAAEAAGKAELAKLLNEAADALNKAMNLLMKIIE
B3: traf2_out_11_155_693 (protein)
chain: EEKKKLNNELVDKMMEIEDETKKELEKIAKEAAKEHPEHAKEIAALVKESKKFSATTFGGRLAELFKKLGLEEYAKKVEKLLEESQKKKNEIYKEIEKKI
B4: traf2_out_18_117_1802 (protein)
chain: SELEEAQRRFREALERFEEEARRASRIAGKLIEKHPHNLPEEATDAIVEFGEIKRRARELALLAEEHADDLETLRRLVEETERLTERMREIRRRLEELLK
B5: traf2_out_11_169_791 (protein)
chain: EEEERNRKIIDFALELDDEAKKELKEEALKLAKEAGLDEEEIKAIFEKNKNASFSAIAADLIAYFRSKGKEEAAKKLEAKYEELQDERNKKFSEFLKSLE
B6: traf2_out_17_178_1729 (protein)
chain: SKEEILKKISEAADELLDVNEAAVDRLRAIAEREGVLTPELRARLDAVHKTANLYALEEVARELIARTSRAEEVQALLDETSKRMRELNKKIQELVEKLE
B7: traf2_out_15_48_1359 (protein)
chain: STAALRATARQINDLIDATLDEVAKELKALLPKAPPEVQPILQEAIDIASNHRSINDTIALLDEAIAKSDPELAAKLQALRDRLLATKKEASALFNATEK
B8: traf2_out_20_3_2153 (protein)
chain: SELEKKAEEAREEAIELLRRAAELADPETAARLEELRARVEASKELSYEDRLVVLSEVRREVLALAEEARRAGDEELARVLEEAAEALNRAMNLTYKIIE
B9: traf2_out_15_48_1356 (protein)
chain: STEKLRETARKINDRIDATKDAVAKELTALLPKLPEENKALAQQAIDTASNNGSINDTIALLDELAKKVDPELKAKLNALRDRLLATKREGSKLFNETLK
B10: traf2_out_6_156_2448 (protein)
chain: MLEKILEETKKKIEEGIKKLAAAPESQKIRWISRIAGTFYRALQKMREAGFSLEEIKEFIEKLRKFLEEKADEYGLDEDTKNLLLASFNAVAEVALEEAK
B11: traf2_out_18_167_1826 (protein)
chain: SEEAEKKINELRDKLIEYSEIRRLALAAIEALRTDPAAAEAALAAVIAALEKVPEFRPDAERLKALPREELPAALEEIAERAQRKMNEIYKEIEEIKKKA
B12: traf2_out_18_167_1887 (protein)
chain: EEELQKKIDELSDRLVRLSEERRAALEVLEALEESREKAKALAEEYLKKYPDSEVIKAILEALKTKSDEEVKAFLREQADALQREANRVYEELEELRKKL
B13: traf2_out_13_95_1121 (protein)
chain: SKEVAEKIMEIADKMEEKVLEILEKLLKEAKAKGIAEEEMQEILELAKHGTINTVIHKLKELAKKYPEMKEELEAAIKELEKIREEAGKEVAKILKEEKE
B14: traf2_out_11_169_815 (protein)
chain: EEAEKNRKINDFALELNDEAKKKLLEHAKKLAKEAGLDVEEVEKIFEENKNKSLSAVAAALIKYFRSKGKEEEAEAVLKKYEELKEEINKKVTEKIKELE
B15: traf2_out_14_166_1283 (protein)
chain: MSPEEIERIRKIVDELEPLNDAAVARAEALLAANRDKLSPEQLAEMERLLDIARRNIGSSAINALRRMAEIAAAAGLAETAAAFRALAEELEKRLSELNK
B16: traf2_out_18_117_1799 (protein)
chain: SELQEAQERFQRTSEEFERALEEAQRVATQLIEAHPKALPAEATDAIVEFGELKRRFLQLQQLHQENPNNLELQKQIVEELERLLEETRRVLEELRRILA
B17: traf2_out_20_3_2128 (protein)
chain: EELEKEAEKALKEAIKLLEEAAALATPERAAVLRELAATLEASRSLSPSDRLVTVSEIRRQVRALALEAAAAGDAELAAVLEKAADALNKLMGLLYKIIE
B18: traf2_out_19_16_1983 (protein)
chain: AEEEAERLLAEMRRHLDEALRLAEETVANLDKLSRDELMDRLVEISELVRRAQEALQRALELLADDPERRAAIRAEYDERLDRINRLMTKIVDRLLELLK
B19: traf2_out_20_3_2189 (protein)
chain: EELEEELEEELEEAEKLLKEAAKLADPETAKKLEELIKRLKESRELSYEDQLVELSRIRREVLRLAEEAKAAGKEELAKKLEEAAEELGEAMNLVYKIIE

Target: T1, TRAF2, Q12933
T1 chain: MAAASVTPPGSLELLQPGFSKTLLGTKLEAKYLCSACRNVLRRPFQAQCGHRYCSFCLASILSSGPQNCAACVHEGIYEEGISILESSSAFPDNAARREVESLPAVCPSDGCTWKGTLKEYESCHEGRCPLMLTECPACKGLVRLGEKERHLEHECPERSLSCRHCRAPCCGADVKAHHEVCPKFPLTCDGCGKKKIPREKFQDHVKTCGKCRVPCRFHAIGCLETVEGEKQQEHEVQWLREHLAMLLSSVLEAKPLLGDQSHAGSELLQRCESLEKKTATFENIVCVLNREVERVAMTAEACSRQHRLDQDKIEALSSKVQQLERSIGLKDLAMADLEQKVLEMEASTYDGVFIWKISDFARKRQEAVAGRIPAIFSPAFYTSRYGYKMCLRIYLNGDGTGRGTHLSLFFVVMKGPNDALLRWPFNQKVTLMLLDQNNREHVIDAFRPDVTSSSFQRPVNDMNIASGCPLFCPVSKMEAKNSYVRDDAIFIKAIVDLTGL
Assay: median log2 fold change of GCK-ALFA target abundance (FLAG IP / Myc IP barcode read proportion) (log2 ratio); each designed protein is fused to an ALFA-tag nanobody in HEK293 cells to bring the named protein to FLAG-tagged glucokinase (GCK); Myc marks an untargeted standard; higher = target protein stabilised (more abundant)
Conditions: target protein: 3xFLAG-MCP-GCK-ALFA reporter; HEK293 landing pad (RPLP)
Summary of the method: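 The readout is target abundance, the per-binder median log2 ratio of FLAG to Myc barcode read proportions. It came from HEK293 landing-pad cells carrying a recombined ALFA-nanobody-fused binder library, induced with 2 μg mL^−1 doxycycline and transfected with a plasmid for a FLAG-tagged target and a Myc-tagged standard. After 48 h, lysates were immunoprecipitated with anti-FLAG and anti-Myc, and circular RNA barcodes were reverse transcribed, amplified and sequenced. Each barcode needed a proportion of at least 10^−7 in both replicates and each binder at least 3 barcodes per replicate, a pseudocount of 10^−6 was added, and the replicates were pooled.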

Binder	median log2 fold change
B1	0.215
B2	0.345
B3	0.253
B4	0.335
B5	0.255
B6	0.0472
B7	0.249
B8	0.103
B9	0.291
B10	-0.22
B11	0.154
B12	0.244
B13	0.00218
B14	0.235
B15	0.229
B16	0.225
B17	0.231
B18	-0.215
B19	-0.158
